# PubChem BioAssay AID686970 (National Center for Advancing Translational Sciences (NCATS), 2013)
# Out of some 360,000 compounds screened, about 6,000 (1.7%) were called active. Inconclusive means that the source gave no clear call. Such entries were picked first, then a sample of the others. Calls follow the shape of the dose curve; as a rule, active = well fitted cell-killing curve with a large enough effect; inconclusive = small, poorly fitted or top-dose-only effect, or effect the other way; inactive = flat fitted curve, though single readings scatter. No potency is given beside an inconclusive call; the fits are too rough.
# Assay: qHTS for induction of synthetic lethality in tumor cells producing 2HG: qHTS for the HT-1080-NT fibrosarcoma cell line;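 also: NT is the 2HG producing partner of a matched IDH1 knockdown line; nearly all actives have a fitted effect of over 55% in size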;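 as to activity, negative = less viability: 0% = DMSO-treated cells and -100% = media-only wells without cells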
# Settings: HT-1080-NT fibrosarcoma viability, CellTiter-Glo ATP luminescence, 48 h; activity, negative = less viability: at 46.1 µM (top of the series) unless noted
# How it was run: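 Fibrosarcoma NT cells, 750 per well in 5% FBS RPMI, were exposed to compound for 48 hours. Viability: CellTiter-Glo luminescence.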
# Potency is read from the fitted curve at half-maximal effect; tags tell the direction and shape of the fitted curve.
SMILES,Potency,"activity, negative = less viability"
CC(=O)c1ccc(Nc2nc(-c3ccccc3)nc3ccccc23)cc1,"inconclusive [cytotoxic, single point]",
Cc1ccc(NCc2ccncc2)c(Br)c1,,inconclusive: 9.45%
CCCCc1ccc(NC(=O)Nc2cc(C)nn2C)cc1,,inconclusive: -22.2% [cytotoxic]
COc1ccc(C2CC(c3ccccc3Cl)=NN2c2ccc(S(N)(=O)=O)cc2)cc1 (stereo unspecified),active: 18.4 µM,
O=C1NC[C@H](Cc2ccc(O)cc2)N(C[C@H]2CCCN2C[C@H](Cc2ccccc2)N2C[C@H](Cc3ccccc3)N(CCc3ccccc3)C(=O)C2=O)C1=O,"inconclusive [cytotoxic, single point]",
COc1ccccc1C1=CC(=O)C[C@H](c2ccc(Cl)cc2)C1,"inconclusive [cytotoxic, single point]",
N#Cc1nc(Cc2cccc3ccccc23)oc1NCc1ccc2c(c1)OCO2,"inconclusive [cytotoxic, single point]",
O=C(c1ccccc1)N1CCC(c2nc3c(nnn3Cc3ccccc3Cl)c(=O)[nH]2)CC1,"inconclusive [cytotoxic, single point]",
O=C(NNC(=O)C1CCC1)c1cccc(Cl)c1,,inactive: -1.47% [at 9.24 µM]
O=C1CCCC(=O)N1c1ccc(Oc2ccc(Cl)cc2)cc1,"inconclusive [rising, full curve]",
Cc1cc(/C=C2\SC(=Nc3ccccc3)NC2=O)c(C)n1-c1ccc(S(N)(=O)=O)cc1,active: 7.31 µM,
Cc1cccc(Oc2ccc(S(=O)(=O)N3CCCCC3)cc2NC(=O)C2=COCCO2)c1,inactive,
COc1ccccc1Nc1nc2nonc2[nH]c1=O,inactive,
COc1cccc(CNn2c(-c3cccc(C)c3)nc3ccccc3c2=O)c1,"inconclusive [cytotoxic, single point]",
COc1ccc(CN2CCN(C(=O)c3ccc(F)cc3)CC2)c(OC)c1,,inconclusive: 32.1%
COc1ccc(-c2oc3ncnc(NCCCO)c3c2-c2ccc(OC)cc2)cc1,"inconclusive [cytotoxic, partial curve]",
COc1cccc(Nc2nc(C(N)C3CCCCC3)cs2)n1 (stereo unspecified),"inconclusive [cytotoxic, single point]",
CN(C)c1ccc(N=Cc2nc(-c3ccccc3)oc2OC(=O)c2cccc(Br)c2)cc1,inactive,
CC1(C)Cc2c(C#N)c(N3CCN(C(=O)c4ccco4)CC3)nc(Cc3ccccc3)c2CO1,"inconclusive [cytotoxic, single point]",
CN(C)c1ccc(/C=N/NC(=O)c2ccccc2)cc1,"inconclusive [cytotoxic, single point]",
Nc1nc(Nc2cccc(F)c2)nc(NCc2ccco2)c1[N+](=O)[O-],active: 9.2 µM,
CC(=O)N1CCc2cc(NC(=O)C3(C)CCN3Cc3ccc(C(C)C)cc3)ccc21 (stereo unspecified),"inconclusive [cytotoxic, single point]",
Nc1cccc(-c2cncc(N3CCN(Cc4ccccn4)CC3)n2)c1,"inconclusive [rising, single point]",
CC1CCCN(C(=O)Cc2cn(Cc3cccc(Cl)c3)c3ccccc23)C1 (stereo unspecified),"inconclusive [cytotoxic, single point]",

SMILES,Potency,"activity, negative = less viability"
O=C1c2cc(S(=O)(=O)NCCO)ccc2-c2ccc(S(=O)(=O)NCCO)cc21,inactive,
COc1ccc(CCNCc2ccc(OCc3ccc(Cl)nc3)c(OC)c2)cc1OC,"inconclusive [cytotoxic, single point]",
COCCNc1nc(-c2ccc(OC)cc2C)c2sc(-c3ccccc3)cc2n1,"inconclusive [cytotoxic, single point]",
O=C(CC1C(=O)N(Cc2ccccc2)C(=S)N1CCN1CCOCC1)Nc1ccc(F)cc1 (stereo unspecified),"inconclusive [cytotoxic, partial curve, poor fit]",
CCCCc1c(-c2ccccc2OC)ncn1CCc1ccc(OC)cc1,active: 16.4 µM,
Cc1cn([C@H]2C[C@H](O)[C@@H](/C=C/C(=O)N3CCN(Cc4ccc(F)cc4)CC3)O2)c(=O)[nH]c1=O,inactive,
CN(C)C(=O)c1cc(C(=O)c2ccc(C(F)(F)F)cc2)c[nH]1,inactive,
COC(=O)[C@@H]1C[C@]2(OC(=O)c3ccccc3)C=CC(=O)C[C@@H]2N1C(=O)OCc1ccccc1,"inconclusive [cytotoxic, single point]",
Cc1ccc([N+](=O)[O-])c(C(=O)N/N=C/c2cccs2)c1,inactive,
COc1ccccc1CCNC(=O)C(=O)NCC1OCCN1C(=O)c1ccc(Cl)cc1 (stereo unspecified),inactive,
COc1ccc(C(N)c2csc(Nc3ccc(C(=O)c4ccccc4)cc3)n2)cc1 (stereo unspecified),"inconclusive [cytotoxic, single point]",
C=C1C(=O)O[C@@H]2[C@H]3O[C@]3(C)CC/C=C(\C)CC[C@@H]12,active: 9.2 µM,
CCOc1ccc(C(C(=O)NCC2CCCO2)N(CCc2cccc(C)c2)C(=O)c2snc(C(N)=O)c2N)cc1 (stereo unspecified),"inconclusive [cytotoxic, single point]",
O=Nc1c(O)n(Cc2cccc(C(F)(F)F)c2)c2ccccc12,"inconclusive [cytotoxic, partial curve]",
Cc1cc(=S)c2ccccc2[nH]1,"inconclusive [cytotoxic, single point]",
Cc1nn(Cc2ccccc2)c(C)c1C(=O)NCC(c1cccs1)N1CCOCC1 (stereo unspecified),inactive,
CCOc1ccc(S(=O)(=O)N2CC(=O)Nc3ccccc32)cc1,"inconclusive [cytotoxic, partial curve]",
Cc1cc2c(cc1C)CSC(c1ccc3ccccc3c1O)SC2,"inconclusive [cytotoxic, single point]",
CCc1ccc(C(=O)Nc2cc(C)on2)o1,"inconclusive [rising, partial curve]",
CNC1=CC(=O)CC(c2ccccc2)C1 (stereo unspecified),inactive,
COc1ccc2c(c1OC)C(=O)N1c3ccccc3N=C(c3ccc([N+](=O)[O-])cc3)CC21 (stereo unspecified),inactive,
CCOC(=O)c1c(-c2ccc(C)o2)csc1NC(=O)COC(=O)c1ccc(NC(N)=O)cc1,"inconclusive [cytotoxic, single point]",
COc1ccc(NC(=O)CSc2c3c(nc4ccccc24)CCC3)c(OC)c1,"inconclusive [cytotoxic, single point]",
O=C(Nc1ccc(N2CCCC2)c(Cl)c1)c1ccc([N+](=O)[O-])o1,active: 5.8 µM,

SMILES,Potency,"activity, negative = less viability"
CCC(C)[C@H](NC(=O)N1CC(=O)Nc2ccccc21)C(=O)N[C@@H](C(=O)O)c1ccccc1 (stereo partly specified),inactive,
CC(=O)C1=C(C)NC(SCc2ccc(C#N)cc2)=C(C#N)C1c1ccco1 (stereo unspecified),inactive,
COc1ccc(/C=C/C(=O)c2cc(F)ccc2OC(=O)c2ccccc2)cc1OC,"inconclusive [cytotoxic, full curve]",
Cc1cc(N2CCN(C)CC2)nc2ccc(NC(=O)c3ccc4c(c3)OCO4)cc12,"inconclusive [cytotoxic, single point]",
Cc1onc(-c2c(F)cccc2Cl)c1C(=O)OCC(=O)c1c(N)n(C)c(=O)n(C)c1=O,"inconclusive [cytotoxic, single point]",
CC1(C(=O)NS(=O)(=O)C2CC2)CCCN(C(=O)Cc2ccc3ccccc3c2)C1 (stereo unspecified),"inconclusive [rising, partial curve]",
Cc1cc(C)n2cc(CSc3ccccn3)nc2n1,"inconclusive [rising, partial curve]",
O=C(Nc1ccc(S(=O)(=O)Nc2ncccn2)cc1)c1ccc(Br)s1,,inconclusive: -20.9% [cytotoxic]
COc1cc(/C=C/c2ccc3cccc(O)c3n2)cc(Br)c1OC,"inconclusive [cytotoxic, partial curve]",
C=CCOc1c(Cl)cc(C(=S)N2CCCC2)cc1OCC,"inconclusive [cytotoxic, single point]",
CCCC(=NCCc1c(C)[nH]c2ccccc12)C1=C(O)CC(c2ccccc2)CC1=O (stereo unspecified),"inconclusive [cytotoxic, full curve]",
Cc1cc(/C=C2\Sc3ccccc3N2C)cc(C)[n+]1CC1CCCO1 (stereo unspecified),active: 9.2 µM,
CC(C)(C)Cc1cc(N)on1,inactive,
CC(C)(C)c1ccc(C(=O)O/N=C(\N)c2ccccc2)cc1,inactive,
COc1ccc(/C=C2\SC(=S)N(CCC(=O)NCCCN3CCOCC3)C2=O)cc1,inactive,
CC1CCCCN1c1nc(-c2ccncc2)nc2ccccc12 (stereo unspecified),,inconclusive: -31% [cytotoxic]
Cc1ccc2[nH]c3c(=O)n(CCN4CCNCC4)cnc3c2c1,inactive,
CCCC(=O)Nc1ccc(C(=O)NNC(=S)NC(=O)c2cccs2)cc1,"inconclusive [cytotoxic, partial curve]",
Oc1ccc(/C=C/c2ccnc3ccccc23)cc1,"inconclusive [cytotoxic, partial curve, poor fit]",
CCOc1ccc(-c2cncc3nccn23)cc1,,inconclusive: 17.8%
Cc1ccc(C(=O)Nc2ccc(S(=O)(=O)N3CCCC3)cc2)s1,"inconclusive [rising, single point]",
O=C(O)/C=C\C(=O)NCc1cccnc1,inactive,
CCCC(=O)Nc1c2c(nc3ccccc13)N(c1ccccc1)CC2,"inconclusive [cytotoxic, partial curve]",
